Experimental data published in the supplement of paper PMC11417369.
The other results are listed elsewhere or left out.

What follows are sequences tested on PfAP2-HC AP2 domain (GST-tagged) (assay: gcPBM binding intensity (ln(normalized median fluorescence intensity)); higher = stronger DNA binding).
Summary of the method: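 After 1 h on an Agilent 4 × 180k array of primer-extended double-stranded 36-bp intergenic genomic probes and negative controls, bound GST-tagged P. falciparum DNA-binding domains were detected with Alexa488 anti-GST antibody and scanned at 488 nm. The domains had been expressed in E. coli, and binding took place in 1× PBS with 1% milk, 0.2 mg/ml BSA, 0.5% salmon testes DNA and 0.03% Triton X-100. Binding intensity is the highest Masliner-normalised natural-log median intensity across replicate spots of either probe orientation.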

Row | Sequence | gcPBM binding intensity (ln)
1 | CTTTTGTATATTATATGTACACACAATAAGTTAATA [XGTACX_site1684] | 9.7
2 | ACATATATTTATATATGTACATATGATATATACATA [XGTACX_site6122] | 9.58
3 | TACATATAAACAATAACACACACCTAGGTACATGGA [CACACA_site8178] | 9.98
4 | AATTAACAAAAACACACACACACACCCACAAAAAAA [CACACA_site517] | 11.4
5 | TTTTTGTAAACCTACTTCATAATTATTTATATCTAT [XGTACX_negctrl_site599] | 9.72
6 | AATACAAATATATATGCACACACATATACATACATA [CACACA_site8677] | 10.5
7 | TACATTTTAATATAAGCATGCCTTTAGTTTTTTTCT [TGCATGCA_site829] | 9.76
8 | CAATTTATTATATATGTGCACATATAATTTTACAAA | 9.57
9 | TAATTATTTTTATTGTTGCACTAGTAAAATTTTAAG [GTGCAC_site9946] | 9.42
10 | TTTCTTTAACAAGTTAAACACACATACATATATACA [CACACA_site8810] | 9.65
11 | ATCATTTCTATATAAGCACACACGTGGAATTTTTTT [CACACA_site2786] | 9.99
12 | TTACTTATATGCATAGTGCAAATTTGGTAAATATCT | 9.58
13 | CACATACAGATATATACACACAAATATAAATACACA [CACACA_site6512] | 10.3
14 | AATAAATATAAAAATGCACACACACTAATAAAAAAA [CACACA_site8201] | 11.4
15 | AAAATAAATATATTATCCACGTTGTATATATATATA [XGTACX_negctrl_site136] | 9.72
16 | TTTTTTTTTTCTTTTTTTTATTATATTAACGGAATT [GTGCAC_negctrl_site104] | 9.35
17 | AAAAAGAAATACAAATAATATATATATATATATATT [TGCATGCA_negctrl_site458] | 9.57
18 | CATAAAAATTGAAGCACACACACAAAAGAAATACAA [CACACA_site1112] | 10.7
19 | AATAAACAAATAAATAAACACACAATATATGTATAT [CACACA_site9268] | 10
20 | ATACATAAATTTATACGTACATATATAGATACATAA [XGTACX_site675] | 9.77
21 | TTACATGCTAAAATTTGTACATATATGATAAATATT [XGTACX_site2648] | 9.61
22 | TTGTTTTCACCAAATACACACAAGCATACACCCCAT [CACACA_site2717] | 10.1
23 | AAGTAAAATAAGTATACACACATAAATATGTAAATA [CACACA_site6467] | 9.99
24 | TTTTATTTTCGATGATGTACATTAAATTATACAGTA [XGTACX_site6053] | 9.5
25 | AAATATTACTCCTCAAGTACACATAAAAAAAAAATA [XGTACX_site2085] | 9.65
